# Experimental data as given in PubChem BioAssay AID686979 (National Center for Advancing Translational Sciences (NCATS), 2013).
# Where “and” joins values, the source holds several entries; their conditions need not be identical. Equal values may be shown once. Among all 420,000 compounds or so, about 50,000 (12%) were called active. Inconclusive means that the source gave no clear call. Such entries were picked first, then a sample of the others. Calls come from the whole dose curve; as a rule, active = well fitted inhibition curve with a large enough effect; inconclusive = small, poorly fitted or top-dose-only effect; inactive = flat fitted curve, though single readings scatter. Where the call is inconclusive, the potency comes from a doubtful curve fit.
# Assay: qHTS for Inhibitors of human tyrosyl-DNA phosphodiesterase 1 (TDP1): qHTS in cells in presence of CPT; note: nearly all actives have a fitted effect of over 55% in size
# Conditions: chicken DT40 Tdp1-/-;hTDP1 cells + 20 nM CPT, ATP luminescence, 48 h; activity change, negative = growth inhibition: at 46.2 µM (top of the series) unless noted
# How it was run: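 Chicken DT40 Tdp1-/- cells stably complemented with human TDP1 were seeded at 400 cells/well in medium containing 20 nM camptothecin, exposed to pin-transferred compounds, and grown at 37 °C for at least 48 hr. Viability was read as ATP luminescence.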
# % is set by controls: 0 for no effect and ±100 for the full control effect; potency is the fitted concentration of half-maximal effect; tags give direction and shape of the fitted curve.
Structure (SMILES),Potency,"activity change, negative = growth inhibition"
O=C(CSc1nncs1)N1c2ccccc2Sc2ccccc21,"inconclusive: 29.1 µM [inhibitor, single point]",–
Cn1c(=O)c2c(nc(SCC(=O)Nc3ccccc3F)n2Cc2ccccc2F)n(C)c1=O,–,inactive: -26.8%
CCC(=O)N1CCC1(C)C(=O)Nc1cc(OC)ccc1OC (stereo unspecified),–,inactive: -0.0022%
Cc1ccc(NC(=O)c2ccc3c(c2)NC(=O)c2ccccc2S3)c(Cl)c1,active: 3.66 µM,–
Cc1nn(CC(=O)NC2CC2)c(=O)c2cc3cc(F)ccc3n12,–,inactive: -1.42%
COc1ccccc1NC(=O)CSc1nc2sc3c(c2c(=O)n1-c1ccccc1)CCN(C)C3,"inconclusive: 25.9 µM [inhibitor, single point]",–
O=C(C1CC1)N(CCN(Cc1ccccc1)C(=O)C1CC1)Cc1ccccc1,active: 16.4 µM,–
FC(F)(F)c1nnc2sc(-c3cccs3)nn12,–,inactive: -7.19%
C(=N\N1CCN(c2ccccn2)CC1)/C1=C(N2CCOCC2)C(=C/c2ccccc2)/CC1,"inconclusive: 16.4 µM [inhibitor, single point]",–
O=C(/C=C/c1ccc(F)cc1)Nc1cccc(S(=O)(=O)Nc2cccc(C(F)(F)F)c2)c1,active: 14.6 µM,–
Cc1ccc(C)c(N2CCN(C(=S)Nc3ccc4nc(N5CCN(C)CC5)cc(C)c4c3)CC2)c1,active: 16.4 µM,–
COc1cc(C2CC(=O)Nc3cc4c(cc32)OCO4)cc(OC)c1O (stereo unspecified),–,inactive: 3.13%
Cc1ccc(-n2nnc3c(SCC(=O)NCC4CCCO4)ncnc32)cc1 (stereo unspecified),active: 20.6 µM,–
CCOC(=O)c1cccc(S(=O)(=O)N(CCO)Cc2cc3cc(OC)ccc3[nH]c2=O)c1,–,inactive: -15.5%
Cc1ccc(CNC(=O)CC[C@H]2O[C@@H](n3cc(C)c(=O)[nH]c3=O)C[C@@H]2O)o1,–,inactive: -5.35%
O=c1c2ccccc2nc(SCc2cn3ccsc3n2)n1-c1ccccc1F,"inconclusive: 18.4 µM [inhibitor, single point]",–
CC(C)NC(=O)c1ccccc1NC(=O)CS(=O)(=O)Cc1ccccc1,"inconclusive: 6.51 µM [inhibitor, single point]",–
COc1cccc(NC(=O)Cn2c(=O)oc3cc(S(=O)(=O)N4CCCCC4)ccc32)c1,"inconclusive: 20.6 µM [inhibitor, single point]",–
Cc1ccc(C(=O)c2oc3ccccc3c2NC(=O)COc2ccc(Cl)c(C)c2)cc1,–,inactive: 6.65%
C/C=C/C1=CC(=O)C[C@H](c2ccc(OC)c(OC)c2)C1,"inconclusive: 29.1 µM [inhibitor, single point]",–
CC(C)Cn1nc(C(=O)Nc2cccc(S(=O)(=O)N3CCCC3)c2)c2ccccc2c1=O,"inconclusive: 29.1 µM [inhibitor, single point]",–
COc1ccc(OC)c2sc(NC(=O)c3ccc(Br)s3)nc12,"inconclusive: 16.4 µM [inhibitor, partial curve]",–
CCCN(Cc1cc2ccccc2[nH]c1=O)C(=O)c1cccc([N+](=O)[O-])c1,–,inactive: -17.4%

Structure (SMILES),Potency,"activity change, negative = growth inhibition"
COC(=O)c1ccccc1NC(=O)C1CCCN(S(=O)(=O)c2ccccc2)C1 (stereo unspecified),"inconclusive: 29.1 µM [inhibitor, single point]",–
CCOC(=O)CN(C(=O)CSc1nnc2c(n1)[nH]c1ccccc12)c1ccccc1,"inconclusive: 25.9 µM [inhibitor, single point]",–
CSc1nc2ccccc2n1CC(=O)Nc1ccc(C)c(C)c1,"inconclusive: 20.6 µM [inhibitor, single point]",–
COc1ccc(C(=O)C2CCCN(Cc3c(F)ccc(F)c3F)C2)c(OC)c1 (stereo unspecified),–,inactive: 18.5%
COCCc1ccc(OCC(O)CNC(C)C)cc1 (stereo unspecified),"inconclusive: 16.4 µM [inhibitor, single point] and inconclusive: 21.1 µM [inhibitor, single point]",–
CC(C)CCN(C(=S)NC(=O)C1CCCCC1)c1c(N)n(Cc2ccccc2)c(=O)[nH]c1=O,"inconclusive: 29.1 µM [inhibitor, single point]",–
CC(C)COc1ccc(C(=O)N2CCCCC2CCN2CCOCC2)cc1 (stereo unspecified),"inconclusive: 29.1 µM [inhibitor, single point]",–
COc1ccc(OC)c(CCNC(=O)c2nc(-c3ccc(Cl)cc3)n3c2CCCCC3)c1,active: 10.3 µM,–
CNC(=O)c1c(NC(=O)c2ccc(S(=O)(=O)N3CCCCC3)cc2)sc2c1CCN(C(C)C)C2,"inconclusive: 25.9 µM [inhibitor, single point]",–
Cc1cc(C(=O)CSc2nc(N)cc(N)n2)c(C)n1-c1cccc(F)c1,"inconclusive: 25.9 µM [inhibitor, single point]",–
COc1cc2c(cc1OC)CN(C(=S)Nc1cccc(Cl)c1C)CC2,"inconclusive: 29.1 µM [inhibitor, single point]",–
Cc1cccc(NC(=O)CSc2n[nH]c(-c3ccncc3)n2)c1,–,inactive: -24%
CC(C)C/C=C1\CCc2c([nH]c3ccccc23)C1=O,–,inactive: 32.5%
Cc1nnc(NC(=O)CSc2nc(C(C)C)nc3sc(C)c(C)c23)s1,"inconclusive: 16.4 µM [inhibitor, partial curve, poor fit]",–
Cc1ccc(C[n+]2cccc(-c3ccccc3)c2)c(C)c1,active: 1.16 µM,–
O=C1N=c2ccccc2=C1c1sc(=S)n(CC2CCCO2)c1O (stereo unspecified),–,inactive: -7.27%
CN(CC(=O)Nc1ccc(Cl)c(C(F)(F)F)c1)C(=O)CCNC(=O)c1ccco1,"inconclusive: 29.1 µM [inhibitor, single point]",–
O=[N+]([O-])/C=C/c1cn(Cc2ccccc2)c2ccccc12,active: 18.4 µM,–
Cc1ccccc1N(CC(=O)NC1CCCC1)C(=O)c1oc(C(C)(C)C)cc1C,active: 16.4 µM,–
CCc1cccc(CC)c1NC(=O)CN(C)S(=O)(=O)c1ccc2c(c1)n(C)c(=O)c(=O)n2C,–,inactive: -28.4%
COc1cccc2c(=O)n(CC(=O)Nc3ccccc3)ccc12,–,inactive: 3.71%
Fc1ccc(-c2noc(C3CCN(Cc4cccnc4)CC3)n2)cc1,"inconclusive: 16.4 µM [inhibitor, single point]",–
Cc1ccc(C(=O)/C=C/c2ccco2)c(O)c1,"inconclusive: 18.4 µM [inhibitor, single point]",–
